Measurements from PubChem BioAssay AID1345083 (National Center for Advancing Translational Sciences (NCATS), 2018).
In all, about 94,000 compounds went through this assay and about 6,200 (6.6%) were called active. Inconclusive results, whose numbers are uncertain, are shown with a selection of clear calls. Calls follow the shape of the dose curve; as a rule, active = well fitted inhibition curve with a large enough effect; inconclusive = small, poorly fitted or top-dose-only effect; inactive = flat fitted curve, though single readings scatter. Where the call is inconclusive, the potency comes from a doubtful curve fit.

assay: Cytotoxic Profiling in HEK 293 Cell Line of Diverse Libraries Using Quantitative High-Throughput Screening; details: HEK 293 viability, ATP luminescence (CellTiter-Glo), 48-72 h; activity change, negative = cytotoxicity: at 115 µM (top of the series) unless noted; series mostly up to 115 µM; also: nearly all actives have a fitted effect of over 60% in size
How it was run: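 HEK 293 cells at 250 cells/well were exposed to compounds by pintool transfer for 48 or 72 hr at 37 degree Celsius, 5% CO2. Viability was read as ATP-coupled luminescence with CellTiter-Glo after 10 min at room temperature.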
% is scaled to controls: 0 for no effect and ±100 for the full control effect; potency is read from the fitted curve at half-maximal effect; tags tell the direction and shape of the fitted curve.

| SMILES | Potency | activity change, negative = cytotoxicity | outcome |
| --- | --- | --- | --- |
| COc1ccc(CN2CC(O)CN(C(=O)c3ccccc3OC)CC2=O)cc1 (configuration not stated) | inconclusive: 100 µM [inhibitor, single point] | – | – |
| CCN1c2cc(C(=O)Nc3cccc(F)c3)ccc2C(=O)N2CCCC21 (configuration not stated) | inconclusive: 44.7 µM [inhibitor, partial curve] | – | – |
| COCCNC(=O)c1ccc2c(c1)N(C)C(CC(=O)N1CCCOCC1)CO2 (configuration not stated) | – | inactive: -14.8% | – |
| COc1ccc(CN2C[C@@H]3C(=O)N(CCc4ccccc4)C(=O)[C@@H]3C2)c(OC)c1 | inconclusive: 50.1 µM [inhibitor, partial curve, poor fit] | – | – |
| COCC(=O)N1CCCN(c2ccnc3ccnn23)CC1 | – | inactive: -1.62% [at 172 µM] | – |
| COc1cccc(-c2ccc(C(=O)N3CCC(NC(=O)Nc4ccccc4)CC3)cc2)c1 | active: 25.1 µM | – | – |
| COc1ccccc1CN(C)C1CCOc2ccccc21 (configuration not stated) | inconclusive: 126 µM [inhibitor, single point] | – | – |
| COc1cc(CNC(=O)c2nc(C(O)c3ccccn3)oc2C)cc(OC)c1 (configuration not stated) | inconclusive: 100 µM [inhibitor, partial curve] | – | – |
| CCN1CCN(C(=O)c2ccc3oc(-c4ccncc4Cl)nc3c2)CC1 | – | – | inactive |
| NC(=O)COc1cccc(C(=O)N2C[C@H](CO)C[C@H](CN3CCCC3)C2)c1 | – | inactive: 2.23% | – |
| COCCNC(=O)CNC(=O)c1ccc(-c2cnc3ccccc3c2)cc1 | – | inactive: -11.8% | – |
| Cc1noc(-c2cn(C3CCN(C(=O)c4cccc(C(F)(F)F)c4)C3)nn2)n1 (configuration not stated) | – | inactive: -1.5% | – |
| O=C1[C@@H]2C[C@@H](CN2C(=O)c2ccc(C(F)(F)F)cc2)Oc2ccccc2N1Cc1ccccc1 | inconclusive: 50.1 µM [inhibitor, partial curve, poor fit] | – | – |
| COc1ccc(C(=O)N2CCC3(CC2)CC(N(Cc2ccccc2)C2CC2)CCO3)cc1 (configuration not stated) | inconclusive: 50.1 µM [inhibitor, partial curve, poor fit] | – | – |
| COCCN1CCCCCC(O)c2cc(C(=O)NCC3CCCCC3)ccc21 (configuration not stated) | inconclusive: 79.4 µM [inhibitor, partial curve] | – | – |
| COCCOc1ccc2c(n1)CCN(C(=O)c1ccccc1C)C2 | inconclusive: 28.2 µM [inhibitor, full curve] | – | – |
| O=C(NCC(=O)N1CCC(c2ccccc2)CC1)c1cccc(-c2ccsc2)c1 | active: 35.5 µM | – | – |
| c1ccc(-c2ccc(CNCc3cccs3)o2)cc1 | inconclusive: 89.1 µM [inhibitor, single point] | – | – |
| CCN(CC)c1cc(CCC(=O)N2CCC(C)CC2)ccn1 | inconclusive: 39.8 µM [inhibitor, partial curve, poor fit] | – | – |
| CC(C)c1ccc(CN2CCc3ncc(C(=O)Nc4ccccc4)n3CC2)cc1 | active: 31.6 µM | – | – |
| C=CCOCC(O)CN1CCC(=O)N(C2CCCC2)Cc2c1ccc(OC)c2OCC=C (configuration not stated) | inconclusive: 50.1 µM [inhibitor, partial curve, poor fit] | – | – |

| SMILES | Potency | activity change, negative = cytotoxicity | outcome |
| --- | --- | --- | --- |
| O=C(Nc1cccc(Cl)c1)C1=NO[C@@H]2CN(c3ccccn3)C[C@H]12 | active: 100 µM | – | – |
| COc1cccc(-c2ccc(CN3CCCC(NC(=O)NC4CCCC4)C3)cc2)c1 (configuration not stated) | inconclusive: 100 µM [inhibitor, single point] | – | – |
| O=C(Nc1nccs1)c1ccc2c(c1)OCCN(CCC(F)(F)F)C2 | inconclusive: 89.1 µM [inhibitor, partial curve] | – | – |
| O=C(Cc1c[nH]c2ncc(-c3ccc(Oc4ccccc4)cc3)cc12)NCc1cccnc1 | active: 39.8 µM | – | – |
| Cc1cccc(CC(C)NC(=O)c2ccc3nc(Cc4ccccc4F)oc3c2)n1 (configuration not stated) | inconclusive: 25.1 µM [inhibitor, full curve] | – | – |
| Cn1cccc1CN1CCC2(Cc3ccccc3NC2=O)C1 (configuration not stated) | inconclusive: 126 µM [inhibitor, partial curve, poor fit] | – | – |
| CCN1CCC(N2CCC3(CC2)NCCc2c3[nH]c3ccc(OC)cc23)CC1 | active: 31.6 µM | – | – |
| O=C1N[C@H](CC(=O)N2CCC(c3ccccc3)C2)C(=O)Nc2ccccc21 (some centres not stated) | – | inactive: 9.58% | – |
| COc1ccccc1C1CCCN1C(=O)c1oc2ccc(C)cc2c1C (configuration not stated) | inconclusive: 89.1 µM [inhibitor, single point] | – | – |
| Cc1ccc(CNC(=O)N2C[C@@H](F)C[C@H]2C(=O)N2CCc3ccccc3C2)cc1 | inconclusive: 89.1 µM [inhibitor, single point] | – | – |
| O=C(NCC1Cn2cccc2CN1Cc1ccccc1)c1ccncc1 (configuration not stated) | inconclusive: 56.2 µM [inhibitor, partial curve, poor fit] | – | – |
| Cc1nn(-c2ccc(C(C)C)cc2)c(C)c1[C@@H]1C=C[C@@H](NCc2ccc(F)cc2)C1 | active: 8.91 µM | – | – |
| COCCN1CCCCCC(O)c2cc(C(=O)N3CCc4ccccc43)ccc21 (configuration not stated) | inconclusive: 44.7 µM [inhibitor, partial curve, poor fit] | – | – |
| CSCCNC(=O)c1cc(-c2ccc(Cl)nc2)nc2c1cnn2C | inconclusive: 44.7 µM [inhibitor, partial curve] | – | – |
| O=C(Nc1ccc(F)cc1)N1CCC(O)(c2csc(CN3CCc4ccccc4C3)n2)CC1 | inconclusive: 50.1 µM [inhibitor, partial curve, poor fit] | – | – |
| Cc1ccc(C2NC(=O)N(CC(=O)Nc3ccc(F)cc3)C3=C2C(=O)OC3)cc1 (configuration not stated) | inconclusive: 39.8 µM [inhibitor, full curve, poor fit] | – | – |
| CCOC(=O)[C@H]1C[C@]2(CCCCN(CCOC)C2=O)N(C(=O)COc2ccccc2)[C@H]1c1ccco1 | inconclusive: 7.94 µM [inhibitor, full curve, poor fit] | – | – |
| CNC(=O)[C@@H]1C[C@@H](O)CN1C1CCN(C(=O)c2ccc(OC)c(F)c2)CC1 | – | inactive: 1.95% | – |
| COc1cccc(-c2cc(C(=O)NCc3ccc(F)cc3)c3cnn(C)c3n2)c1 | inconclusive: 22.4 µM [inhibitor, full curve, poor fit] | – | – |
| COc1ccc(-c2nc(C)nc3c2CN(C(=O)Cc2ccccn2)CC3)cc1 | – | inactive: 0.69% | – |
| CN1[C@@H](CCC(=O)Nc2ccccc2)CNC(=O)[C@@H]2[C@H]1CCN2Cc1cccc(OC(F)(F)F)c1 | inconclusive: 50.1 µM [inhibitor, partial curve, poor fit] | – | – |
